Assay results from PubChem BioAssay AID504332 (National Center for Advancing Translational Sciences (NCATS), 2011).
About 31,000 (8.9%) of roughly 350,000 compounds were called active. The shares of active, inactive and inconclusive entries below differ from those in the screen. Calls follow the shape of the dose curve; as a rule, active = well fitted inhibition curve with a large enough effect; inconclusive = small, poorly fitted or top-dose-only effect; inactive = no such curve, though single readings can be large or run the other way. Potencies beside an inconclusive call are fits to weak or partial responses and may not hold up. The source holds several records for some structures; these can differ, active in one and inactive in another.

Biological target: Histone-lysine N-methyltransferase EHMT2 (Homo sapiens) (UniProt Q96KQ7)
Test: qHTS Assay for Inhibitors of Histone Lysine Methyltransferase G9a; also: nearly all actives have a fitted effect of over 75% in size
Conditions: G9a H3K9 monomethylation, AlphaScreen, 2 h; activity, negative = inhibition: at 59 µM (top of the series) unless noted
In short: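 AlphaScreen read-out: biotin-H3K9 peptide (500 nM) methylation by 20 nM enzyme with 20 uM SAM, 2 h at room temperature after 15 min compound preincubation; anti-monomethyl H3K9 antibody plus donor/acceptor beads, 10 min dark.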
% is scaled to controls: 0 for no effect and ±100 for the full control effect; potency is read from the fitted curve at half-maximal effect; tags tell the direction and shape of the fitted curve.

Sequence of UniProt Q96KQ7 (Q96KQ7 whole entry, looked up): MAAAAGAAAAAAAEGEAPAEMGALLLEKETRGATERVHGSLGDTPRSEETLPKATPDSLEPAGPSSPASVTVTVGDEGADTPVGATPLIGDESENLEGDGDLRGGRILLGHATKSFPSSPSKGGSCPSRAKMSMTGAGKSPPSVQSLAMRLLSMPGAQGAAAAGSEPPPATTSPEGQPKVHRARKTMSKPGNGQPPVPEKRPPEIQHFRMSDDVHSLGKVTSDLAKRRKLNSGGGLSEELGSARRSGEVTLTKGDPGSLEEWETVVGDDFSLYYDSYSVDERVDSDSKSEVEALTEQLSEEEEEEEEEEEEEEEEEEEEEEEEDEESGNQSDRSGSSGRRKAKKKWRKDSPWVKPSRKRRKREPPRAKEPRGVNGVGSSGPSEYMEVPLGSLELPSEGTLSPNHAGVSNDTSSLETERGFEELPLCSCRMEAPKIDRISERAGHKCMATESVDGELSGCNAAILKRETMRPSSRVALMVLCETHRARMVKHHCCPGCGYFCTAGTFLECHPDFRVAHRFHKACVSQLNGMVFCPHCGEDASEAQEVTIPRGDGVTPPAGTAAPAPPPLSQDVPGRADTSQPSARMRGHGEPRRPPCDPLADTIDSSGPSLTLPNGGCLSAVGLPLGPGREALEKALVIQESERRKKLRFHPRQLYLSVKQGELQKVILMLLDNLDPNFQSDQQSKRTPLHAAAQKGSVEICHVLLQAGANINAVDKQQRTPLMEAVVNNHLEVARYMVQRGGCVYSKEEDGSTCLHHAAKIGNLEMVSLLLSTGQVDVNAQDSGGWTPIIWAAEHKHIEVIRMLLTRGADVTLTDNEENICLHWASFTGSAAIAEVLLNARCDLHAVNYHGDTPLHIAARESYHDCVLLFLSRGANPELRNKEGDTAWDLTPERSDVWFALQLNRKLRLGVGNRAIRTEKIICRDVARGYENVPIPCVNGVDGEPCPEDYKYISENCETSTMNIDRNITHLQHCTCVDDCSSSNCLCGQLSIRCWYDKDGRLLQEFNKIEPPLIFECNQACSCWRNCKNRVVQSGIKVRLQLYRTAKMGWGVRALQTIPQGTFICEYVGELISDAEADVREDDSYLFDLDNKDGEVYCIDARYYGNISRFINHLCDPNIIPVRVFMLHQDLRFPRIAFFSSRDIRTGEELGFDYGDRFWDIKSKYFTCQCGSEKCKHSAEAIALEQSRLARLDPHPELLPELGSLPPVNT

| SMILES | Potency | activity, negative = inhibition |
| --- | --- | --- |
| CC(c1ccccc1)n1c(-c2ccncc2)n[nH]c1=S (stereo unspecified) | active: 2.51 µM | – |
| COc1ccc(-c2[nH]c(-c3cccc(OC)c3)nc2SCC(=O)Nc2ccc3c(c2)OCO3)cc1 | active: 10 µM | – |
| COc1ccc(/C=C2\Sc3ccc(C(=O)NCc4cccnc4)cc3N(C)C2=O)cc1OC | inconclusive: 28.2 µM [inhibitor, single point] | – |
| COc1cc(SC)ccc1C(=O)NC1CCCCC1 | active: 1.12 µM | – |
| Cc1ccc(CNC(=O)CCC2CCCN(Cc3cc4ccccc4o3)C2)o1 (stereo unspecified) | inconclusive: 70.8 µM [inhibitor, single point] | – |
| CCn1c(=O)c2cc(C(=O)NCCOC)sc2c2ccccc21 | inconclusive: 1.58 µM [inhibitor, single point] | – |
| O=C(NCCC(=O)N1CCOCCOCCOCCOCC1)OCc1ccccc1 | inconclusive: 50.1 µM [inhibitor, partial curve, poor fit] | – |
| O=C(N/N=C/c1ccco1)c1cc(C2CC2)nc2ccccc12 | inconclusive: 3.16 µM [inhibitor, partial curve, poor fit] | – |
| CCCCOc1cccc(C(=O)N(Cc2ccccc2)C2CCS(=O)(=O)C2)c1 (stereo unspecified) | – | inactive: 5.85% [at 102 µM] |
| COc1cc(NS(=O)(=O)c2ccc(NC(=S)NC(=O)/C=C/c3ccco3)cc2)ncn1 | inconclusive: 44.7 µM [inhibitor, partial curve] | – |
| CCC(=O)NNc1nc2c(C)cccc2s1 | inconclusive: 56.2 µM [inhibitor, partial curve, poor fit] | – |
| Cn1cccc1/C=N/NC(=O)c1ccccn1 | active: 3.16 µM | – |
| O=C(CSc1ccsc1[N+](=O)[O-])N1CCCCCC1 | active: 44.7 µM | – |
| O=C(C1CCN(S(=O)(=O)c2cccc3cccnc23)CC1)N1CCN(c2ccccc2)CC1 | inconclusive: 35.5 µM [inhibitor, single point] | – |
| CN(Cc1ccccc1)C(=S)NC(=O)c1ccc(-c2ccccc2)cc1 | – | inactive: 82.7% |
| Nc1nc(-c2c[nH]c3ccccc23)cs1 | inconclusive: 1.58 µM [inhibitor, single point] | – |
| Cc1ccc(C(=O)c2cc([N+](=O)[O-])ccc2N2CC(C)OC(C)C2)cc1 (stereo unspecified) | – | inactive: 7.74% |
| O=C1CN(C(=O)NCC(=O)N[C@@H](Cc2ccccc2)C(=O)O)c2ccccc2N1 | inconclusive: 89.1 µM [inhibitor, single point] | – |
| COC(=O)c1ccc(CSc2nc(-c3ccco3)cc(C(F)(F)F)n2)o1 | inconclusive: 39.8 µM [inhibitor, single point] | – |
| COc1ccc(NC(=O)c2cccc(NC(=O)c3ccco3)c2)c(OC)c1 | inconclusive: 39.8 µM [inhibitor, single point] | – |
| Nc1ccccc1SSc1ccccc1N | active: 1.58 µM | – |
| CCc1nnc(NC(=O)c2nc(S(=O)(=O)Cc3ccc(C)cc3)ncc2Cl)s1 | active: 44.7 µM | – |
| C=CC[N+](C)(C)CCCNC(=O)/C=N/O | inconclusive: 8.91 µM [inhibitor, partial curve, poor fit] | – |
| Cc1ccc(NC(=O)c2ccc3nccnc3c2)c(C)c1 | inconclusive: 100 µM [inhibitor, single point] | – |

| SMILES | Potency | activity, negative = inhibition |
| --- | --- | --- |
| CN1CCCC(OC(=O)c2ccc(C#N)cc2)C1 (stereo unspecified) | inconclusive: 0.447 µM [inhibitor, partial curve, poor fit] | – |
| COc1cccc(NC(=O)c2ocnc2C)c1 | inconclusive: 89.1 µM [inhibitor, partial curve, poor fit] | – |
| Cc1ccc(C)c(NC(=S)c2nc3ccccc3s2)c1 | inconclusive: 31.6 µM [inhibitor, partial curve, poor fit] | – |
| COc1ccc(OC)c2sc(NC(=O)c3ccc(S(=O)(=O)N4CCCC4)cc3)nc12 | – | inactive: -5.28% |
| Cc1nn(-c2ccccc2)c(C)c1/C=N\N1CCN(c2ccc(Cl)cc2)CC1 | inconclusive: 14.1 µM [inhibitor, full curve] | – |
| COc1ccccc1C/C(N)=N/OC(=O)c1cccc([N+](=O)[O-])c1 | inconclusive: 31.6 µM [inhibitor, partial curve, poor fit] | – |
| N#Cc1c(/N=C/c2ccc(Br)s2)sc2c1CCC2 | inconclusive: 5.01 µM [inhibitor, full curve, poor fit] | – |
| COc1ccc(C2(C)NC(=O)N(CC(=O)Nc3cccnc3Cl)C2=O)cc1 (stereo unspecified) | – | inactive: 65.7% [at 102 µM] |
| CCOC(=O)CC(NC(=O)CCc1c(C)nc2c(c(C)nn2-c2ccc(C)c(C)c2)c1C)c1ccc(C)cc1 (stereo unspecified) | – | inactive: -34.6% |
| CCOC(=O)c1coc(CNC(=O)c2c(C)oc3c2CCCC3)c1 | active: 56.2 µM | – |
| COCCNC(=S)N=Nc1c(O)[nH]c2c(C)cc(C)cc12 | – | inactive: -3.53% [at 102 µM] |
| O=C(O)c1oc2ccccc2c1CSCc1ccccc1 | inconclusive: 89.1 µM [inhibitor, single point] | – |
| C=CCn1c(SCc2n[nH]c(=S)n2-c2ccccc2)nnc1-c1ccccc1 | active: 11.2 µM | – |
| COCCN1C(=O)N(C)[C@@H](c2ccccc2)C(C(C)=O)=C1C | – | inactive: 18.9% |
| S=C(Nc1ccc(Cl)c(Cl)c1)N1CCCC1 | – | inactive: 18.6% [at 102 µM] |
| Cc1cccc(Cn2c(=O)c3c(nc4n3CCCN4Cc3ccccc3)n(C)c2=O)c1 | – | inconclusive: -72.9% [inhibitor] |
| O=C(O)C1C2C=CC(O2)C1C(=O)Nc1ccc(S(=O)(=O)Nc2ccccc2)cc1 (stereo unspecified) | inconclusive: 2.51 µM [inhibitor, partial curve, poor fit] | – |
| Cc1cccc(C(=O)Nc2ccc(NC(=O)CN3CCOCC3)cc2)c1 | inconclusive: 79.4 µM [inhibitor, partial curve, poor fit] | – |
| COc1ccc(-c2nc3cc(C)ccn3c2NCc2ccc3c(c2)OCO3)cc1 | inconclusive: 44.7 µM [inhibitor, partial curve] | – |
| Cn1cc([N+](=O)[O-])c(C(=O)NC2CCCC2)n1 | – | inactive: 9.29% [at 102 µM] |
| COc1ccc(N2C(=O)/C(=C/c3cccnc3)NC2=S)cc1 | inconclusive: 89.1 µM [inhibitor, single point] | – |
| O=C(CSc1nnc(-c2ccccn2)o1)Nc1ccccc1C(F)(F)F | active: 70.8 µM | – |
| CCCCOc1ccc(-c2nn(-c3ccccc3)cc2C2NC(=O)NC(C)=C2C(=O)OCC)cc1 (stereo unspecified) | inconclusive: 1 µM [inhibitor, partial curve, poor fit] | – |
| O=C1CC(N2CCC(c3nc4ccccc4[nH]3)CC2)C(=O)N1Cc1ccccc1 (stereo unspecified) | inconclusive: 22.4 µM [inhibitor, single point] | – |

| SMILES | Potency | activity, negative = inhibition |
| --- | --- | --- |
| N=c1sccn1CC(=O)Nc1ccc([N+](=O)[O-])cc1Cl | – | inactive: 6.85% |
| COc1nc(Nc2ccc([N+](=O)[O-])cc2)nc(NC(C)C)n1 | inconclusive: 20 µM [inhibitor, partial curve, poor fit] | – |
| COc1ccc2ccccc2c1CN1CCN(C(=O)c2ccccc2)CC1 | inconclusive: 25.1 µM [inhibitor, single point] | – |
| CC(C)CN1CCN(Cc2ccc(Oc3ncccn3)cc2)CC1CCO (stereo unspecified) | inconclusive: 39.8 µM [inhibitor, partial curve, poor fit] | – |
| O=C(NC(=S)Nc1nc(-c2ccccc2)cs1)c1cncc(Br)c1 | – | inactive: -12.5% [at 102 µM] |
| CCOC(=O)c1ccccc1NC(=S)N1CCC(N2CCCCC2)CC1 | inconclusive: 89.1 µM [inhibitor, single point] | – |
| Cc1cc2oc(C(=O)Nc3ccc(S(N)(=O)=O)cc3)cc(=O)c2cc1C | – | inactive: -8.22% |
| CCOC(=O)c1c(COc2ccccc2)oc2ccc(O)cc12 | inconclusive: 7.08 µM [inhibitor, single point] | – |
| CN(C)CCCN(C(=O)COc1ccccc1)c1nc2ccc(Cl)cc2s1 | inconclusive: 11.2 µM [inhibitor, partial curve, poor fit] | – |
| O=C(c1cc2ccccc2oc1=O)N1CCN(c2ccc(Cl)cc2)CC1 | – | inactive: -5.99% |
| O=C(NCCc1ccccc1)c1cnc2sc(N3CCCCCC3)nn2c1=O | – | inactive: 16.7% |
| COCCn1c(SCC(=O)OCc2ccccc2)nc2c1c(=O)[nH]c(=O)n2C | active: 31.6 µM | – |
| CCC1Oc2ccccc2N(CC(=O)NC2CCCC2)C1=O (stereo unspecified) | – | inactive: 4.76% [at 102 µM] |
| COc1ccc(CN2CCN(CCSc3ccc(C)cc3)CC2)c(OC)c1OC | active: 8.91 µM | – |
| CCc1ccc(C(=O)c2cn(CC(=O)Nc3cccc(OC)c3)c3ccc(OC)cc3c2=O)cc1 | active: 10 µM | – |
| Cc1ccc(S(=O)(=O)C(C#N)c2nc3ccccc3nc2N2CCC(C)CC2)cc1 (stereo unspecified) | – | inconclusive: -78.7% [inhibitor] [at 12.7 µM] |
| Cc1cc(N(C)/N=C/c2ccccc2O)nc(-c2ccccc2O)n1 | inconclusive: 1.26 µM [inhibitor, full curve, poor fit] | – |
| Cc1cc(C)c(NC(=O)C2=CCN(S(=O)(=O)c3ccc(F)cc3)CC2)c(C)c1 | inconclusive: 89.1 µM [inhibitor, single point] | – |
| CCOC(=O)C1CCCN(C(=O)COc2ccc(C(=O)c3ccccc3)cc2)C1 (stereo unspecified) | inconclusive: 44.7 µM [inhibitor, partial curve] | – |
| Cc1ccc(N2CCN(c3ccc(NCc4nc5ccccc5n4C)cc3)CC2)cc1 | inconclusive: 11.2 µM [inhibitor, partial curve, poor fit] | – |
| O=c1c2c3c(sc2[nH]c(=S)n1Cc1ccco1)CCC3 | active: 14.1 µM | – |
| CN(CC1CCCO1)S(=O)(=O)c1ccc(C(=O)N2CCN(c3ccccc3)CC2)cc1 (stereo unspecified) | inconclusive: 89.1 µM [inhibitor, partial curve, poor fit] | – |
| COc1cc(C(=O)Nc2ccccc2N2CCOCC2)ccc1OCC(=O)N1CCOCC1 | inconclusive: 63.1 µM [inhibitor, partial curve, poor fit] | – |
